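Where inhibition never reached the appropriate level, the endpoint shown equals the highest concentration tested. Otherwise, values were interpolated linearly from a five-concentration, 48-hour dose response in 96-well plates. Here, GI50 denotes the concentration required for 50% inhibition of growth. TGI: concentration producing complete growth inhibition.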

For the assay, the system named is NCI-H322M lung. Nature of the assay: NCI-60 cell line screen, 48 h.
For the molecule `COC(=O)C(NC(=O)C12CCC(C)(C(=O)O1)C2(C)C)c1cc(C(C)(C)C)c(O)c(C(C)(C)C)c1` (centres undefined), the TGI was > 100 µM.
As to `Clc1ccc(C2=NN(c3ccccc3)C3c4cc(Br)ccc4OCC23)cc1` (centres undefined), the TGI was > 100 µM.
As for `N#Cc1c(-c2ccccc2)cc(Nc2ccc(F)cc2)n2c1nc1ccccc12`, the TGI is 10.1 µM.
In the case of `COC(=O)[C@@H](COC(=O)/C=C/c1ccc(OC(C)=O)c(OC(C)=O)c1)NC(=O)/C=C/c1ccc(OC(C)=O)c(OC(C)=O)c1`, the TGI is > 100 µM.
In the case of `CC1(C)O[C@@H]([C@@H](O)[C@H](O)C2SCCCS2)[C@@H](CO)O1`, the TGI was > 100 µM.
`Oc1ccc(-c2nc(-c3ccc(F)cc3)c(-c3ccncc3)[nH]2)cc1`: the GI50 is 19.6 µM and the TGI is 71.5 µM.
In the case of `NC1=NC(=O)[C@H](CSCc2ccccc2)N1C(=O)OCc1ccccc1`, the TGI was > 100 µM.
In the case of `CC/C(=C(/CC)c1ccc(OP(=O)([O-])[O-])cc1)c1ccc(OP(=O)([O-])[O-])cc1.N.N.N.N.[Pt+4].[Pt+4]`, the GI50 is 12.5 µM and the TGI amounted to 54.6 µM.
With `O=C(CCl)Nc1ccc(-c2nc3ccccc3s2)cc1`, the TGI turned out to be 13.7 µM.
As for `Cn1c(=O)c2c(nc3n2C(CCl)CO3)n(C)c1=O` (centres undefined), the TGI was > 100 µM.
`O=C1/C(=C\c2ccccc2)CN(C(=O)c2ccccc2F)C/C1=C\c1ccccc1`: the GI50 was 11.9 µM and the TGI is 25.6 µM.
Regarding `CC(C)c1cc(C(C)C)c(P2(=O)CC3C(Cl)(Cl)C3(C)C2)c(C(C)C)c1` (centres undefined), the TGI is 28.4 µM.
With `NC(=O)OCc1c(O)c2c(c(O)c1COC(N)=O)C(=O)C=CC2=O`, the TGI is > 100 µM.
Turning to `CCCNc1c(Cl)cc(Cl)c2[nH]c3ccccc3c(=O)c12`, the TGI was > 100 µM.
In the case of `COC12c3ccccc3-c3ccccc3C1[C@@H](C(=O)O)[C@H]2C(=O)O` (some centres undefined), the TGI was > 10 µM.
Take `CSc1ccc(C=C2N=C(c3ccccc3)N(c3cc(C(=O)c4ccccc4)ccc3N3C(=O)/C(=C/c4ccc(SC)cc4)N=C3c3ccccc3)C2=O)cc1`: the TGI was > 100 µM.
Still for that read-out and setting: the result for `Cc1ccc(CCCC(=O)O)cc1C` reads > 100 µM.
In the case of `CCCCCCCCCCCCCCCc1ccc(C(=O)C[n+]2ccccc2)cc1`, the GI50 is 1.07 µM and the TGI stood at 3.93 µM.
For `CC1OC(OC2C(OC3CCC4(C)C(CCC5(C)C4CC=C4C6CC(C)(C)CCC6(CO)C(O)CC45C)C3(C)C)OC(C(=O)O)C(OC3OC(COC4OC(CO)C(O)C(O)C4O)C(O)C(O)C3O)C2O)C(O)C(O)C1O` (centres undefined), in that order: 10.5 µM and 20.3 µM.
With `O=C1NCC2=C1CCC1c3ccccc3CCN21` (centres undefined), the TGI is > 100 µM.
As to `CCN(CC)CCSc1nc2c([N+](=O)[O-])cccc2[nH]1`, the TGI is > 100 µM.
On the same count and under the same terms, the result for `CC1=C(C(=O)Nc2cc(F)c(F)cc2F)C(c2cccc([N+](=O)[O-])c2)C(C(=O)Nc2ccccc2C(F)(F)F)=C(C)N1` (centres undefined) reads 69.1 µM.
Consider `CC[n+]1c(/C=C/c2ccc(N(CCCl)CCCl)cc2)ccc2cc(Br)ccc21`, for which the GI50 is 623 µM.
Turning to `COc1ccc(OC)c(CC(=O)c2ccc(O)c(C(=O)NCCc3ccc(F)cc3)c2)c1`, the TGI amounted to 20.6 µM.
Consider `COc1ccc(C=O)c(N(C)C(=O)C(C)(C)C)c1`, for which the TGI was > 100 µM.
The same measure, in the same setting: the result for `COc1ccc([N+](=O)[O-])cc1[I+]c1cc([N+](=O)[O-])ccc1OC` reads > 100 µM.
Consider `COc1cc2c(cc1OCCCN1CCN(CCCOc3cc4c(cc3OC)C(=O)C3CCC[C@H]3C=N4)CC1)N=C[C@@H]1CCCC1C2=O` (some centres undefined), for which the GI50 was 26.8 µM and the TGI was > 100 µM.
As to `CC(C)(C)OC(=O)N1CCC[C@H]1CSC[C@@H]1CCCN1C(=O)OC(C)(C)C`, the TGI is > 100 µM.
In turn, `Cc1ccc2c(c1)C(=O)c1ccc(C)nc1C2=O` had a TGI of 95.4 µM.
For the molecule `COc1ccc(-n2c(-c3ccccc3)cc(-c3cccs3)c2-c2cccs2)cc1`, the TGI is > 100 µM.
The same measure, in the same setting: in the case of `COc1ccc(Nc2nc3c(N)cc(C(F)(F)F)cc3nc2-c2ccccc2)cc1` it was > 100 µM.
As to `COc1cc2c(c(Br)c1N)-c1cc(Br)c(N)cc1C2=O`, the GI50 was > 100 µM and the TGI is > 100 µM.
As for `C=CCSC1=N/C(=C\c2ccco2)C(=O)N1CC=C`, the TGI is > 100 µM.
On the same count and under the same terms, the result for `CC(=O)OCC1OC(n2cnc3c(I)nc(I)nc32)C(OC(C)=O)C1OC(C)=O` (centres undefined) reads 30.7 µM; that for `COC(=O)/C=C1/OC(c2ccccc2)=CC1=O`, > 100 µM.
`COC(=O)/C=C(\S/C(=C(/c1ccccc1)n1cc(C(=O)OC)c(C(=O)OC)n1)c1ccccc1)C(=O)OC` showed a TGI of 35.2 µM.
On the same count and under the same terms, in the case of `Cc1c(O)c(OC2OC(CO)C(O)C(O)C2O)cc2c1CC[C@@H]1C2(C)C(=O)C[C@]2(C)[C@@H]([C@@](C)(O)C(O)CCC(C)(C)O)[C@H](O)C[C@@]12C` (some centres undefined) it was > 100 µM; in that of `COC(=O)C1(C)CCc2c(ccc3ccccc23)C1=O` (centres undefined), > 100 µM; in that of `O=C1Nc2ccccc2/C1=C\c1c(Cl)[nH]c2ccccc12`, 9.37 µM.
`c1ncc(C23C4C5C6C4C2C6C53)[nH]1` (centres undefined): the TGI was > 100 µM.
As for `CC[C@]12C=CCN3CC[C@]4(C(=C(C(=O)OC)C1)Nc1ccccc14)[C@@H]32`, the GI50 is 10.9 µM and the TGI came out at 24.6 µM.
As to `Cc1cc2c(C)nn(Cc3ccc(Cl)cc3Cl)c2c(C#N)c1C`, the TGI is > 100 µM.
With `[N-]=[N+]=NC1=C(N=[N+]=[N-])c2cccc3cccc(c23)C1=O`, the TGI was > 100 µM.
As for `COC(=O)[C@H]1[C@H](OC(=O)[C@@H](OC)c2ccccc2)ON2CC[C@@H](OC(=O)c3ccccc3)[C@H]12`, the TGI was > 100 µM.
Same read-out and setting: the result for `CCN=C(N)CSS(=O)(=O)O` reads > 100 µM; that for `CCN1CCC(O)(c2ccccc2)C(C(=O)c2ccccc2)C1` (centres undefined), > 100 µM.
In the case of `c1ccc(CNc2nc(Nc3ccc(-c4nc5ccccc5[nH]4)cc3)c3cn[nH]c3n2)cc1`, the GI50 is 2.87 µM and the TGI was 11.4 µM.
`COc1ccc(C(=O)Nc2ccccc2C#N)cc1`: the TGI was > 100 µM.
For `C[C@@H](Oc1cc(-n2cnc3ccc(OCC4CCN(C)CC4)cc32)sc1C(N)=O)c1ccccc1C(F)(F)F`, the GI50 is 0.664 µM and the TGI amounted to 4.7 µM.
For the molecule `NC(=NCc1ccccc1)N/N=C\c1ccnc2ccccc12`, the TGI was 35.7 µM.
Same read-out and setting: the result for `COC(=O)C1CCCCCCCCCCC12SCCCS2` (centres undefined) reads 46.8 µM.
`Cn1cc(-c2nonc2-c2cn(C)c3ccc(Br)cc23)c2ccccc21`: the GI50 was 5.9 µM and the TGI was > 100 µM.
`CCOC(=O)c1cc(NC(=O)c2ccccc2)c(=O)n2c(cc3c(Cl)cccc32)c1O`: the TGI was > 100 µM.
Turning to `c1cc(-c2ccc(Oc3ccc(-c4ccncc4)cc3)cc2)ccn1`, the TGI was > 100 µM.
On the same count and under the same terms, in the case of `CCCCC[C@H]1CC=CC(=O)O1` it was 87 µM.
Regarding `Cc1nc(N=C(N)N)nc2ccc3ccccc3c12`, the GI50 is 1.48 µM and the TGI amounted to 4.6 µM.
As to `COc1cc([C@@H]2c3cc4c(cc3[C@@H](N=Cc3ccc(C(=O)O[C@H]5C[C@H]6OC[C@@]6(OC(C)=O)[C@H]6[C@H](OC(=O)c7ccccc7)[C@]7(O)C[C@H](OC(=O)[C@H](OC(=O)c8ccc(C=N[C@@H]9c%10cc%11c(cc%10[C@@H](c%10cc(OC)c(O)c(OC)c%10)[C@H]%10C(=O)OC[C@@H]%109)OCO%11)cc8)[C@@H](NC(=O)c8ccccc8)c8ccccc8)C(C)=C([C@@H](OC(C)=O)C(=O)[C@]56C)C7(C)C)cc3)C3COC(=O)C32)OCO4)cc(C)c1O` (some centres undefined), the TGI is > 31.2 µM.

The values above are taken from PubChem BioAssay (NCI).
